Consider 84 variants from the RNAGym collection of RNA variant scans (doi:10.1093/nar/gkz1192).

The source gives no read counts; variants with many changes may rest on few reads.

The chains are these.
B1: CPEB3 Ribozyme (parent)
chain: UAACAGGGGGCCACAGCAGAAGCGUUCACGUCGCAGCCCCUGUCAGAUUCUGGUGAAUCUGCGAAUUCUGCUGUAUAUCUC

In the series the parent is B1. Description: self-cleavage, relative activity (ratio to wild type); higher = more cleavage; in vitro, sequencing. In a few lines:
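Libraries of CPEB3 self-cleaving ribozyme mutants came from rounds of error-prone PCR and carried barcodes, which DNA sequencing matched to variants. In vitro transcription used T7 RNA polymerase at 37°C for 5 hours, with a further 15 min in DNase I before EDTA stopped the reaction; the ribozymes cleaved during both steps. The RNA was reverse transcribed with template switching and sequenced on Illumina. Relative activity is the cleaved/total read fraction of a variant divided by that of the unmutated ribozyme, averaged over three batches with at least 5 reads.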
A13U A18G U25G U49C U67A: the self-cleavage is 0.08. Regarding A13U A21C U72C, the self-cleavage was found to be 0.1. In the case of A13U C39A A57U U58A, the self-cleavage was 0.1. As for A13U A45U U51A A57G, the figure is 0.12; as for A13U C37U U54G U58A G63U, 0.05.

As for A13G U74C U76G, the self-cleavage was determined as 0.8. In the case of A13U A35G U51A U54C U72C A75G it was 1.31. In the case of A13U A56G C71U, the self-cleavage worked out at 0.53. In the case of A13U A18U A45U A56G A77G it was 0.04; in that of A13U A20G C40U, 1.05; in that of A13U C32U A57G U74C, 0.63. As to A13G U48C A57G, the self-cleavage came to 1.12. With A13U A21C A35U, the self-cleavage was 0.12. As for A13U A20G U49C U67C, the figure is 0.25; as for A13U C14U A20G U58A U67C U72C U74C, 0.23; as for A13U A20U A35G U49C U54C, 0.16. In the case of A13U A15G A21G U25C U41C U69C it was 0.08. Regarding A13U A20G U31A C32U U49C U72C U74C, the self-cleavage was determined as 0.03. As for A13U A45G U58G, the self-cleavage is 0.05. For the variant A13G U48C G55U U58C, the self-cleavage worked out at 0.18. Consider A13G U49A A57G U66C, for which the self-cleavage is 0.11. Regarding A13G U51A U60C G70A, the self-cleavage worked out at 0.16. Take A13G U67A U69C: the self-cleavage worked out at 0.16. Regarding A13G U49C U76A, the self-cleavage came to 0.22. As for A13G U49C C59G A77G, the figure is 0; as for A13U A20G U31A U49C A64G U69C, 0.05; as for A13U A21G A35U C59U U66C A75G, 0.13. A13U A35G C62G G73C: the self-cleavage was 0.23. With A13U A28C A45G U48C A64G, the self-cleavage is 0.07. In the case of A13G U54C A77U it was 1.14; in that of A13U A18G U26C U31A U72A, 0.04. As for A13G U66A U67A U69A, the figure is 0.22; as for A13U A21G A28G U72C, 0.2; as for A13U C27G A28G, 0.56. As for A13U A15G A18G A47G A57G U76C, the figure is 0.06; as for A13U A18G U26C, 0.15.

A13U A20C U54C A56U A64G U72C A75G: the self-cleavage was 0.15. As for A13U A18G U41A G52A U80G, the figure is 0.3; as for A13U A18G U66A U76A, 0.4. In the case of A13U A20U A45G U60C U66C U72C it was 0.16; in that of A13U C27A U74G U78A, 0.17; in that of A13U C39A A64U, 0.14. As to A13G U51C U54A, the self-cleavage was 0.92.

Take A13G U51C A64G U72A: the self-cleavage came to 0.15. As for A13U A45U G55A A65G, the figure is 0.13; as for A13U A20U U25C, 0.2; as for A13U A18G A45U U80G, 0.37. With A13G U54A U74A, the self-cleavage came to 1.11.

A13U A21G U26C A47G A77U: the self-cleavage worked out at 0.06. As for A13U A20U A35U U54A, the figure is 0.17; as for A13U C32G U76A, 0.19. In the case of A13U A35G A65G U72A it was 0.96; in that of A13U A64U U67A, 0.19; in that of A13U A21G U41A U48A A75G, 0.05. In the case of A13U A28U A35G C79A it was 1.29. As to A13U A18G U43C U48C, the self-cleavage came to 0.08. As for A13U C27U G33A, the figure is 0.13; as for A13U A28G G63U, 0.69; as for A13U C37A U72A U74A, 0.16. As to A13U A65U U74C, the self-cleavage is 0.45.

Take A13G U43A A45U U69C: the self-cleavage amounted to 0.2. As for A13U A15G A18U C39G, the figure is 0.14; as for A13U A56G A64G A77G, 0.9. Regarding A13U A21U U43C U54A, the self-cleavage turned out to be 0.2.

Turning to A13U A15G A56U, the self-cleavage turned out to be 0.4. Turning to A13U A20U C23U U60C, the self-cleavage is 0.14.

In the case of A13U A18G U41G A65G U72A, the self-cleavage came out at 0.04. In the case of A13G U43C U51A A64U U78C, the self-cleavage was found to be 0.23. In the case of A13U C17U A28G U67C U76A, the self-cleavage stood at 0.08. Turning to A13U A15U A77G, the self-cleavage was determined as 0.59. In the case of A13U A18G G19A A20U G30U G33A U58C it was 0.19; in that of A13U A64G U67C U69A G70C U74A, 0.16; in that of A13U A15U U31A G73A, 0.92. As for A13U A18G G63A U69C, the figure is 1.26; as for A13U A47U U80A, 1.07.

As for A13U A18G U26C U51C, the self-cleavage was determined as 0.56. In the case of A13U A21G U26C U31C U60A U66C U69A it was 0.04; in that of A13U A47G G73A, 1.29. Take A13U A28G U72C A77G: the self-cleavage came out at 0.74. As for A13G U49C A64G A65G, the figure is 0.08.

With A13U A20U A35U A56G U66C, the self-cleavage turned out to be 0.37.

In the case of A13U A35G A64U, the self-cleavage was 1. As for A13U C14U G16A U26A U72A, the figure is 0.16; as for A13G U51A U54C, 0.75.
